According to ChEMBL document CHEMBL1201862, “PubChem BioAssay data set” (2004):
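96-well plates; 48 h exposure; 5 concentrations. Endpoints by linear interpolation between flanking doses. Not reached: highest tested concentration assigned. GI50: concentration for 50% inhibition of growth.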 Calls of active or inactive are those of the source. Cut-off read from the data, not from the text of the source: active = GI50 up to about 1.1 µM and inactive = higher.

These compounds were tested on NCI-H322M (assay: NCI tumour cell line growth inhibition, 48 h).
`COc1ccc2nc3n(c2c1)C(=O)c1ccccc1-3` was tested, and the GI50 was inactive: > 100 µM.
`CC(=O)Oc1cc2oc(=O)cc(C)c2cc1OC(C)=O` was tested, and the GI50 was inactive: 34.1 µM.
In the case of `CN(C)S(=O)(=O)n1ccnc1`, the GI50 is reported as inactive: > 100 µM.
`Cc1nc(N)nc(S)c1CCCNc1ccccc1` was tested, and the GI50 was inactive: 83.8 µM.
In the case of `CN1CCN(CCCN2c3ccccc3Sc3ccc(C(F)(F)F)cc32)CC1`, the GI50 is reported as inactive: 7.83 µM.
For `CC(C)C(=O)Cc1ccc2ccccc2n1`, the GI50 was inactive: > 100 µM.
With `Cc1ccc(S(=O)(=O)NNC(=O)c2sc(-c3nc(C)c(C(=O)NNS(=O)(=O)c4ccc(C)cc4)s3)nc2C)cc1` the GI50 was inactive: > 100 µM.
With `C[C@]12CCC3c4ccc(O)cc4CC[C@H]3C1CC(=O)N(N)C2=O` (stereo not given in full) the GI50 was inactive: > 100 µM.
In the case of `CC1CC(=O)C(CC(=O)O)C1C(C(=O)C(=O)Nc1c(C#N)cccc1[N+](=O)[O-])[N+](=O)[O-]` (stereo not given), the GI50 is reported as inactive: > 100 µM.
`O=C(OC1C(Oc2ccccc2COC(=O)C2(O)C=CCCC2=O)OC(CO)C(O)C1O)c1ccccc1` (stereo not given) was tested, and the GI50 was inactive: 29.9 µM.
`O=c1[nH]nc(Cc2ccccc2)n1CCO` was tested, and the GI50 was inactive: > 100 µM.
With `CC12CCCCC1C(=O)C2(Cl)Cl` (stereo not given) the GI50 was inactive: 3.79 µM.
With `NC1=NN(c2ccccc2)C(=O)C1C(=O)C(=O)Nc1ccc(Cl)cc1` (stereo not given) the GI50 was inactive: > 100 µM.
For `N#CC(c1cc(Cl)ncn1)c1nc2ccccc2s1` (stereo not given), the GI50 was inactive: 11 µM.
For `COc1ccccc1-n1nnc2c(N)nc(N)nc21`, the GI50 was inactive: > 100 µM.
For `C/C(=N/O)c1cccc(Nc2nc3ccccc3c3[nH]c4ccccc4c23)c1`, the GI50 was inactive: 1.72 µM.
In the case of `COC12OC3(C4OC41)C(C(=O)O[C@H]3CO[Si](C)(C)C(C)(C)C)C2C(=O)Oc1ccccc1` (stereo not given in full), the GI50 is reported as inactive: > 100 µM.
For `S=C1NC(c2ccccc2)NC(c2ccccc2)S1` (stereo not given), the GI50 was inactive: > 100 µM.
`CCCCCCCCNC(=O)C1=C(C)NC(C)=C(C(=O)NCCCCCCCC)C1` was tested, and the GI50 was inactive: > 100 µM.
`CCN(CC)CCn1c(C(C)(C)C)nc2ccccc21` was tested, and the GI50 was inactive: > 100 µM.
`O=C(/C=C/c1ccccc1)CC1OC(=O)c2ccccc21` (stereo not given) was tested, and the GI50 was inactive: > 100 µM.
For `COc1nc(N=P(c2ccccc2)(c2ccccc2)c2ccccc2)cc(=O)n1C`, the GI50 was inactive: > 100 µM.
`CC(CO)(CO)N1C(=O)C2C3C=CC(C3)C2C1=O` (stereo not given) was tested, and the GI50 was inactive: > 100 µM.
For `c1ccc(COc2nc3cc(C45CC6CC(CC(C6)C4)C5)ccc3[nH]2)cc1`, the GI50 was inactive: 25.6 µM.
With `Cc1ccccc1NC(=O)C(=O)CC(=O)c1sc(-n2nc(-c3ccccc3)cc2-c2ccccc2)nc1C` the GI50 was inactive: > 100 µM.
In the case of `COC(=O)/C=C\C1C(C(=O)OC)C2(C(=O)OC)CCC1(C(=O)OC)N2` (stereo not given), the GI50 is reported as inactive: 16.7 µM.
For `O=C1C(Cl)C(c2cc3cc(Br)ccc3nc2Cl)N1c1c(Cl)cccc1Cl` (stereo not given), the GI50 was inactive: > 25 µM.
`Cc1ccccc1C(=O)C#Cc1cn(C2CC(O)C(CO)O2)c(=O)[nH]c1=O` (stereo not given) was tested, and the GI50 was inactive: > 100 µM.
For `CC(=O)N1CN2C(=O)CCC2c2ccccc21` (stereo not given), the GI50 was inactive: > 100 µM.
In the case of `O=C1/C(=N\O)S(=O)(=O)c2ccccc21`, the GI50 is reported as inactive: > 100 µM.
With `CCOC(=O)C[C@@H]1C2(C=C[C@@]13CO3)OCC(C)(C)CO2` the GI50 was inactive: > 100 µM.
With `COc1ccc(-c2cc(C(=O)Nc3cc(C(F)(F)F)cc(C(F)(F)F)c3)c3ccccc3n2)cc1` the GI50 was inactive: 4.01 µM.
For `CCn1c(=O)nc2n(-c3ccccc3)c3ccccc3nc-2c1=O`, the GI50 was inactive: 25.4 µM.
For `CC1C2CC(C(S(=O)(=O)N3CCOCC3)/C2=N\O)C1(C)C` (stereo not given), the GI50 was inactive: > 100 µM.
`CC(=O)Oc1ccccc1C(=O)C1c2cccc(O)c2C(=O)c2c(O)cccc21` was tested, and the GI50 was active: 0.982 µM.
In the case of `COC(=O)CC1(O)C(C=C(C)C)C(C(=O)OC)C(=O)C(C(=O)OC)C1C(=O)OC` (stereo not given), the GI50 is reported as inactive: > 100 µM.
`COC(=O)[C@H](C)[C@H]1CC[C@@](C)([C@H]2CC3C(C)(C)[C@H]4CCC(C)=C[C@H]4C[C@@]3(C)O2)OO1` (stereo not given in full) was tested, and the GI50 was inactive: 16 µM.
In the case of `N[C@@H]1c2c(Br)sc(Br)c2C(=O)[C@H]1Br`, the GI50 is reported as inactive: > 100 µM.
With `O=S(=O)(N=S(c1ccccc1)c1ccccc1)c1ccccc1` the GI50 was inactive: > 100 µM.
For `CC1=C(C(=O)Nc2cccc(Cl)c2)C(c2ccccc2O)C(C(=O)Nc2cccc(Cl)c2)=C(C)N1`, the GI50 was inactive: 25.2 µM.
In the case of `Cc1ccc(S(=O)(=O)C2=Cc3ccc(C(F)(F)F)cc3C2(O)c2cccc(C(F)(F)F)c2)cc1` (stereo not given), the GI50 is reported as inactive: 4.16 µM.
`C/C=C1\C=C(OC)CN(CCc2c[nH]c3ccccc23)C1` was tested, and the GI50 was inactive: 37.1 µM.
In the case of `COc1cc(C2c3c(ccc4ccccc34)C(=O)C3CCC(=O)N32)cc(OC)c1OC` (stereo not given), the GI50 is reported as inactive: > 50 µM.
For `CN(C)c1ccc(/C=C/c2cc(-c3ccccc3)[n+](C)n2-c2ccccc2)cc1`, the GI50 was inactive: 1.32 µM.
`CCOC(=O)c1c(SCc2cc(=O)[nH]c(=O)[nH]2)n(-c2ccccc2)c(=S)n(-c2ccccc2)c1=O` was tested, and the GI50 was inactive: > 100 µM.
With `O=C1CCCCCCCCCCOC(=O)CCCCCCCCCCO1` the GI50 was inactive: > 100 µM.
In the case of `COc1ccc(C2=C(N)c3cc(OC)ccc3C2=O)cc1`, the GI50 is reported as inactive: > 100 µM.
`CCOC(=O)/C=C/n1c2ccccc2c(=O)c2ccccc21` was tested, and the GI50 was inactive: > 100 µM.
In the case of `CCN(CC)c1ccc2c(c1)Nc1cc(=C(C#N)C#N)c3ccccc3c1=N2`, the GI50 is reported as inactive: > 100 µM.
In the case of `COC(=O)c1cccc2c3ccccc3c3ccccc3c12`, the GI50 is reported as inactive: 35.6 µM.
For `N#CC1(C#N)C(c2ccccc2)NC23CCCCC2C1(C#N)C(=O)N3` (stereo not given), the GI50 was inactive: > 100 µM.
For `CCCNCC(=O)O[C@]1(CC)C(=O)OCc2c1cc1n(c2=O)Cc2cc3ccccc3nc2-1`, the GI50 was active: 0.537 µM.
In the case of `ClC1CCC2OOC1O2` (stereo not given), the GI50 is reported as inactive: > 100 µM.
With `O=C(c1ccccc1)[C@@H]1C[C@H](Sc2ccccc2)c2cc(Cl)ccc2N1` the GI50 was inactive: 73.1 µM.
For `Cc1c([N+](=O)[O-])ccc2c(NCCCN(C)C)ccnc12`, the GI50 was inactive: 32 µM.
In the case of `COc1ccc(OC)c(CNc2ccc(O)c(C(=O)NCCc3ccc(F)cc3)c2)c1`, the GI50 is reported as inactive: 18.7 µM.
For `COC(=O)NNc1c([N+](=O)[O-])cnn(-c2ccccc2)c1=O`, the GI50 was inactive: 5.87 µM.
For `Cc1cc(NS(=O)(=O)c2ccc(NC(=O)c3cccc4c(Nc5ccc(S(N)(=O)=O)cc5)c5ccccc5nc34)cc2)no1`, the GI50 was inactive: > 100 µM.
With `C=C1CC=CC(C)(C)C1C/C=C(\C)C(O)CBr` (stereo not given) the GI50 was inactive: > 100 µM.
With `O=C(c1c(F)c(F)c(F)c(F)c1F)n1c(O)nc2ccccc21` the GI50 was inactive: 15.3 µM.
In the case of `CC1CCC2(NC1)OC1CC3C4CC=C5CC(OC6OC(CO)C(OC7OC(C)C(O)C(O)C7O)C(O)C6OC6OC(C)C(O)C(O)C6O)CCC5(C)C4CCC3(C)C1C2C` (stereo not given), the GI50 is reported as inactive: 2.31 µM.
For `CC1=CC(C)C(C)N(CCNC(=O)Nc2ccccc2)c2ccccc21` (stereo not given), the GI50 was inactive: 18.8 µM.
`COc1ccc(C2=Nc3c(nc(OC)[nH]c3=O)NC(c3ccccc3)C2)cc1` (stereo not given) was tested, and the GI50 was inactive: 49 µM.
In the case of `CCCCCc1cc2cc3c(c(O)c2c(=O)[nH]1)C1(CCC3)C(=O)c2c(O)c3c(c(O)c2C1=O)C(=O)C(OC)=CC3=O` (stereo not given), the GI50 is reported as inactive: 2.64 µM.
`O=c1[nH]cnc2c1ncn2[C@H]1CO[C@@H](CO)[C@@H]1O` was tested, and the GI50 was inactive: > 100 µM.
`CCN(CC)Cc1cc(Nc2c3ccccc3nc3c2[nH]c2ccccc23)ccc1O` was tested, and the GI50 was inactive: 1.49 µM.
With `CC(=O)O[C@H]1C(=O)[C@@]2(C)[C@H]([C@H](OC(=O)c3ccccc3)[C@]3(O)C[C@H](OC(=O)[C@H](O)[C@@H](NC(=O)c4ccc(N(C)C)cc4)c4ccccc4)C(C)=C1C3(C)C)[C@]1(OC(C)=O)CO[C@@H]1C[C@@H]2O` the GI50 was active: < 0.005 µM.
In the case of `Nc1cc2c(nc3c4ccccc4c(N)cc3[n+]2-c2cccc3ccccc23)c2ccccc12.Nc1cc2c(nc3c4ccccc4ccc3[n+]2-c2cccc3ccccc23)c2ccccc12`, the GI50 is reported as inactive: 5.78 µM.
With `COC(=O)c1ccccc1NC(=O)C(=O)CC(=O)CC(c1ccccc1)c1c(O)c2ccccc2oc1=O` (stereo not given) the GI50 was inactive: > 100 µM.
For `CCOC(=O)C1=C(N)N(c2ccccc2)/C(=C(/C#N)c2nc3ccccc3[nH]2)S1`, the GI50 was inactive: > 100 µM.
With `NC1=NN(c2ccccc2)C(=O)C1/C(=N\NC(=O)c1cc2ccccc2cc1O)C(=O)Nc1ccc(Cl)c(Cl)c1` (stereo not given) the GI50 was inactive: 29.3 µM.
In the case of `CO[C@]12CC(=O)C3(C(C[C@H]4CC5CC=C6C[C@@H](OC(C)=O)CC[C@]6(OC(C)=O)C5C[C@@]43C)C1)C1C[C@H]3[C@@H]4CC=C5C[C@@H](OC(C)=O)CC[C@]5(OC(C)=O)[C@H]4CC[C@]3(C)C12` (stereo not given in full), the GI50 is reported as inactive: 38.5 µM.
In the case of `COc1c2c(cc3c1-c1c(cc4c(c1OC)OCO4)C1OC3C(C)C1C)OCO2.COc1cc2c(c(OC)c1OC)-c1c(cc3c(c1OC)OCO3)C1OC2C(C)C1C` (stereo not given), the GI50 is reported as inactive: > 100 µM.
`C=C1C(=O)C23C(O)CC4C5(C)CCCC4(C(O)OC5)C2C(OC(C)=O)CC1C3O` (stereo not given) was tested, and the GI50 was inactive: 11.5 µM.
`CN1OC(=O)N(C)C1c1ccccc1` (stereo not given) was tested, and the GI50 was inactive: > 100 µM.
`COc1cc[n+](C)cc1` was tested, and the GI50 was inactive: > 100 µM.
For `Cc1c(N(C)C)ccc2c(=O)c3cccc(CC(=O)O)c3oc12`, the GI50 was inactive: > 100 µM.
`CCOc1ccc(/N=N/S(=O)(=O)O)cc1` was tested, and the GI50 was inactive: > 100 µM.
In the case of `O=S(O)CCCCCSSc1ccccc1`, the GI50 is reported as inactive: > 100 µM.
With `C/C(=N\Nc1nc2ccccc2o1)c1ccc2ccccc2n1` the GI50 was inactive: 3.3 µM.
`O=C1c2cc3c(cc2[C@@H]2NC4CCCC14O2)OCO3` (stereo not given in full) was tested, and the GI50 was inactive: > 100 µM.
`COc1cc(C2c3cc4c(cc3[C@@H](NC3CCN(Cc5ccccc5)CC3)C3COC(=O)[C@H]23)OCO4)cc(OC)c1O` (stereo not given in full) was tested, and the GI50 was inactive: 2.14 µM.
In the case of `CC12CCC3(C1)[C@H](CC2=O)C[C@@H](OC(=O)c1ccccc1)C1C(C)(CO)CCC[C@@]13C` (stereo not given in full), the GI50 is reported as inactive: 5.53 µM.
In the case of `O=C1/C(=C/c2ccc(Cl)cc2)CCCc2ccccc21`, the GI50 is reported as inactive: 23.3 µM.
With `Nc1nccc2c1ncn2[C@H]1C[C@H](O)[C@@H](CO)O1` the GI50 was inactive: > 100 µM.
For `CN1C/C(=C\c2cccs2)C(O)/C(=C/c2cccs2)C1` (stereo not given), the GI50 was inactive: > 100 µM.
For `Cc1cc(-c2nc3cccc(O)c3s2)ccc1N`, the GI50 was inactive: 55.2 µM.
In the case of `O=C(NCCCl)SCCO`, the GI50 is reported as inactive: > 100 µM.
In the case of `O=c1[nH]c(Nc2cccc(C(F)(F)F)c2)nc2[nH]cnc12`, the GI50 is reported as inactive: 63.2 µM.
With `COc1ccc(/C=C/c2cc(OC)c(OCc3ccccc3)c(OC)c2)cc1` the GI50 was inactive: > 100 µM.
